Measured values: the supplement of paper PMC4604168 (melanoma cell lines)
This is one part of the list. Repeats are few or missing, and single values can be far off.

What was measured:
Test in all cases: cell count relative to DMSO control; melanoma cells; higher = more viable cells
Conditions in all cases: library dose: standard library concentration; 72 h
SkMel28 = tested on: SkMel28
SkMel2 = tested on: SkMel2
SkMel30 = tested on: SkMel30
SkMel5 = tested on: SkMel5
UACC257 = tested on: UACC257
UACC62 = tested on: UACC62
WM115 = tested on: WM115
WM1716 = tested on: WM1716
WM1745 = tested on: WM1745
WM3526 = tested on: WM3526
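Further: cells treated in 1,536-well plates, then fixed and DAPI-stained, with nuclei counted from automated high-throughput microscope images.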

Structure (SMILES) | cell count (SkMel28) [%] | cell count (SkMel2) [%] | cell count (SkMel30) [%] | cell count (SkMel5) [%] | cell count (UACC257) [%] | cell count (UACC62) [%] | cell count (WM115) [%] | cell count (WM1716) [%] | cell count (WM1745) [%] | cell count (WM3526) [%]
Cn1nnc2c(C(N)=O)ncn2c1=O [temozolomide] + O=C(O)C(=O)Nc1sc2c(c1C(=O)O)CCNC2 [TCS401] (first compound 10 µM, partner dose 8.33333 µM) | 37.2 | 104 | 72 | 66.7 | 80 | 78.6 | 81.3 | 56.3 | 85.2 | 85.4
O=C(O)[C@@H]1[O][Sb](=[O])([O][Sb]2(=[O])[O][C@H]([C@H](O)CO)[C@H](O)[C@H](C(=O)O)[O]2)[O][C@H]([C@H](O)CO)[C@@H]1O (stereo not given in full) [stibogluconate] + COCC[n+]1c2c(n(Cc3cnccn3)c1C)C(=O)c1ccccc1C2=O [YM155] (first compound 10 µM, partner dose 0.002 µM) | 51.5 | 66.5 | 105 | 49.9 | 29 | 100 | 73.1 | 74.7 | 121 | 50.3
O=C(O)[C@@H]1[O][Sb](=[O])([O][Sb]2(=[O])[O][C@H]([C@H](O)CO)[C@H](O)[C@H](C(=O)O)[O]2)[O][C@H]([C@H](O)CO)[C@@H]1O (stereo not given in full) [stibogluconate] + CC(C)(C)c1cnc(CSc2cnc(NC(=O)C3CCNCC3)s2)o1 [SNS-032] (first compound 10 µM, partner dose 0.05 µM) | 55.5 | 83.7 | 85.5 | 73.8 | 100 | 57.1 | 86.9 | 81.8 | 87.3 | 93.5
Cn1nnc2c(C(N)=O)ncn2c1=O [temozolomide] + NCC(=O)Nc1ccc(-n2nc(C(F)(F)F)cc2-c2ccc3c(ccc4ccccc43)c2)cc1 [OSU03012] (first compound 10 µM, partner dose 5 µM) | 30.5 | 33.1 | 64.1 | 72.5 | 66.7 | 42.6 | 75.1 | 60.7 | 110 | 38.2
Cc1cc(N2CCOCC2)cc2[nH]c(-c3c(NC[C@@H](O)c4cccc(Cl)c4)cc[nH]c3=O)nc12 + COc1ccc(-c2ccc3c(N4CCOCC4)nc(N4C[C@@H](C)O[C@@H](C)C4)nc3n2)cc1CO [KU0063794] (first compound 1 µM, partner dose 0.1 µM) | 70 | 68.4 | 70.5 | 57.8 | 98.2 | 106 | 85.7 | 94.1 | 52.5 | 56.1
O=C(Nc1ccccc1)c1cc([N+](=O)[O-])ccc1Cl + CC(C)CCN1c2nc(Nc3cc(F)c(O)c(F)c3)ncc2N(C)C(=O)C1C [BID1870] (first compound 10 µM, partner dose 1 µM) | 52.7 | 70.5 | 71.3 | 57.1 | 71.7 | 54.5 | 75.5 | 89.5 | 84.9 | 72
O=C(O)[C@@H]1[O][Sb](=[O])([O][Sb]2(=[O])[O][C@H]([C@H](O)CO)[C@H](O)[C@H](C(=O)O)[O]2)[O][C@H]([C@H](O)CO)[C@@H]1O (stereo not given in full) [stibogluconate] + COc1cc(Nc2ncc(F)c(Nc3ccc4c(n3)NC(=O)C(C)(C)O4)n2)cc(OC)c1OC [Tamatinib] (first compound 10 µM, partner dose 2 µM) | 74.1 | 94.8 | 108 | 67.1 | 91.7 | 78.4 | 63.3 | 71.1 | 40.9 | 88.7
O=C(O)[C@@H]1[O][Sb](=[O])([O][Sb]2(=[O])[O][C@H]([C@H](O)CO)[C@H](O)[C@H](C(=O)O)[O]2)[O][C@H]([C@H](O)CO)[C@@H]1O (stereo not given in full) [stibogluconate] + COc1ccc(Cl)c(Nc2nc3ccccc3nc2NS(=O)(=O)c2cccc(NC(=O)C(C)(C)N)c2)c1 [XL147] (first compound 10 µM, partner dose 4 µM) | 90.6 | 105 | 108 | 92.5 | 76.1 | 127 | 91.4 | 87.3 | 92.3 | 91.1
Cn1nnc2c(C(N)=O)ncn2c1=O [temozolomide] + C[C@@H]1CCN(C(=O)CC#N)C[C@@H]1N(C)c1ncnc2[nH]ccc12 [CP690550] (first compound 10 µM, partner dose 5 µM) | 40.5 | 104 | 59 | 120 | 93 | 69.2 | 98.7 | 62.5 | 90.7 | 104
Cn1nnc2c(C(N)=O)ncn2c1=O [temozolomide] + O=C(O)c1ccc(-c2c[nH]c3ncc(-c4ccccc4)cc23)cc1C1CCCC1 [GSK650394] (first compound 10 µM, partner dose 0.8 µM) | 31.2 | 74.2 | 61.8 | 77.7 | 73.5 | 54.4 | 70.2 | 68.8 | 67.5 | 76.7
O=C(Nc1cc(C(F)(F)F)cc(C(F)(F)F)c1)c1cc(Cl)ccc1O + CC(C)C[C@H](NC(=O)[C@H](Cc1ccccc1)NC(=O)c1cnccn1)B(O)O [Bortezomib] (first compound 0.08 µM, partner dose 0.005 µM) | 27.9 | 42.2 | 25.7 | 37.8 | 75 | 64.1 | 20.3 | 17 | 22.5 | 26.1
Cn1nnc2c(C(N)=O)ncn2c1=O [temozolomide] + CC(C)CCN1c2nc(Nc3cc(F)c(O)c(F)c3)ncc2N(C)C(=O)C1C [BID1870] (first compound 10 µM, partner dose 1 µM) | 40 | 85.7 | 43.8 | 73.4 | 80.7 | 82.9 | 86.4 | 44.7 | 97 | 63.2
O=C(O)[C@@H]1[O][Sb](=[O])([O][Sb]2(=[O])[O][C@H]([C@H](O)CO)[C@H](O)[C@H](C(=O)O)[O]2)[O][C@H]([C@H](O)CO)[C@@H]1O (stereo not given in full) [stibogluconate] + Nc1cccc2c1CN(C1CCC(=O)NC1=O)C2=O [lenalidomide] (first compound 10 µM, partner dose 5 µM) | 93.1 | 99.5 | 103 | 84.1 | 105 | 94.9 | 70.4 | 94.7 | 75.1 | 83.7
O=C(Nc1cc(C(F)(F)F)cc(C(F)(F)F)c1)c1cc(Cl)ccc1O + COCC[n+]1c2c(n(Cc3cnccn3)c1C)C(=O)c1ccccc1C2=O [YM155] (first compound 0.08 µM, partner dose 0.002 µM) | 47.2 | 39.8 | 77.1 | 42.2 | 34.7 | 70 | 94.9 | 80.5 | 109 | 64.8
Cn1nnc2c(C(N)=O)ncn2c1=O [temozolomide] + COC(=O)c1sccc1S(=O)(=O)Nc1ccc(Nc2ccccc2)cc1OC [GSK0660] (first compound 10 µM, partner dose 5 µM) | 41.1 | 113 | 69.6 | 93.6 | 103 | 73.9 | 83.5 | 72.3 | 94.5 | 99.2
Cn1nnc2c(C(N)=O)ncn2c1=O [temozolomide] + COc1cc(Nc2ncc(F)c(Nc3ccc4c(n3)NC(=O)C(C)(C)O4)n2)cc(OC)c1OC [Tamatinib] (first compound 10 µM, partner dose 2 µM) | 55.7 | 77.2 | 77.4 | 61 | 84.9 | 66.7 | 93.4 | 59.3 | 44.8 | 79.3
Cn1nnc2c(C(N)=O)ncn2c1=O [temozolomide] + Oc1cc(-c2nc(-c3ccccc3)[nH]c2-c2ccncc2)ccc1Cl [L779450] (first compound 10 µM, partner dose 1 µM) | 34.1 | 31.8 | 68.6 | 79.2 | 99.7 | 56.7 | 59.6 | 53.9 | 61.7 | 59.1
Cc1cc(N2CCOCC2)cc2[nH]c(-c3c(NC[C@@H](O)c4cccc(Cl)c4)cc[nH]c3=O)nc12 + CN(NC(=O)CC(=O)NN(C)C(=S)c1ccccc1)C(=S)c1ccccc1 [STA4783] (first compound 1 µM, partner dose 0.03 µM) | 41.6 | 53.7 | 67.4 | 57.2 | 93 | 28.7 | 27.6 | 107 | 17 | 103
O=C(Nc1cc(C(F)(F)F)cc(C(F)(F)F)c1)c1cc(Cl)ccc1O + CC(C)(C)c1cnc(CSc2cnc(NC(=O)C3CCNCC3)s2)o1 [SNS-032] (first compound 0.08 µM, partner dose 0.05 µM) | 95 | 86.4 | 123 | 102 | 97.7 | 86.5 | 72.3 | 85.5 | 84.6 | 128
O=C(Nc1ccccc1)c1cc([N+](=O)[O-])ccc1Cl + O=C1NC(=O)/C(=C/c2ccc(-c3ccc(F)cc3O)o2)S1 [AS252424] (first compound 10 µM, partner dose 5 µM) | 56.1 | 0.909 | 74.4 | 72 | 94.5 | 72.3 | 89.3 | 92.5 | 60.3 | 75
